About 2,300 (1%) of roughly 220,000 compounds were called active. The inconclusive results got no clear call from the source; some entries with a clear call stand among them for comparison. Calls come from the whole dose curve; as a rule, active = well fitted inhibition curve with a large enough effect; inconclusive = small, poorly fitted or top-dose-only effect, or effect the other way; inactive = no such curve, though single readings can be large or run the other way. No potency is given beside an inconclusive call; the fits are too rough.
molecular target: Neuropeptide S receptor (Homo sapiens) (UniProt Q6W5P4); assay: qHTS Assay for Antagonists of the Neuropeptide S Receptor: cAMP Signal Transduction; conditions: CHO-NPSR cells, cAMP TR-FRET, antagonist mode; series mostly up to 38.3 µM; note: nearly all actives have a fitted effect of over 50% in size
Chain of UniProt Q6W5P4 (Q6W5P4 whole entry, looked up): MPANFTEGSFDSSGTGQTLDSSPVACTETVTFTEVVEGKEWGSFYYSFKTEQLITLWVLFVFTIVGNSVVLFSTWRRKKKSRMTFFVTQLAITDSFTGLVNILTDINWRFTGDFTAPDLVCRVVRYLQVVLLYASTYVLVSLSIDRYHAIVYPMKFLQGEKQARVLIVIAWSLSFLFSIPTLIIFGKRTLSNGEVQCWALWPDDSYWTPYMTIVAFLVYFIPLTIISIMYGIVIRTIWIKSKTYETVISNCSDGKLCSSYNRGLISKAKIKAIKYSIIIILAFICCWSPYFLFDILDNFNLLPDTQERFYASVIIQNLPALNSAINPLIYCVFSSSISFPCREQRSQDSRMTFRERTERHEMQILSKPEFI
Potency is the fitted concentration of half-maximal effect; tags give direction and shape of the fitted curve.

Q: `CCOC(=O)c1cnc2ccc(C)cc2c1Sc1ccccc1C(=O)OC` was tested. Which Potency did it give?
A: inconclusive [inhibitor, single point]

Q: `Cc1nc2ccc(NC(=S)NC3CCCCC3)cc2nc1C` was tested. Which Potency did it give?
A: inactive

Q: With `CCN(CC)C(=O)Cn1nc(C)c2ccccc2c1=O` as the molecule, how does the Potency read?
A: inconclusive [activator, full curve]

Q: With `CCNC(=O)CSc1nnc(-c2ccccc2Br)n1-c1cccc(C(F)(F)F)c1` as the molecule, how does the Potency read?
A: inactive

Q: How did the Potency turn out when `Brc1cc(Br)c2nc(-c3ccc(N4CCOCC4)cc3)ccc2c1` was run?
A: inconclusive [inhibitor, single point]

Q: `CC(C)C[C@H](NC(=O)c1[nH]cnc1C(=O)Nc1ccc(CNC(=O)OC(C)(C)C)cc1)C(=O)OC(C)(C)C` was tested. Which Potency did it give?
A: inconclusive [inhibitor, single point]

Q: How did the Potency turn out when `c1coc(-c2nnc3sc(C4CCCCC4)nn23)c1` was run?
A: inconclusive [inhibitor, single point]

Q: With `Cc1ccc(S(=O)(=O)c2c(N)n(Cc3ccco3)c3nc4ccccc4nc23)cc1C` as the molecule, how does the Potency read?
A: inconclusive [inhibitor, single point]

Q: With `CCOC(=O)c1cc(C#N)c(SCC(=O)c2cc(C#N)c(SC)nc2C)nc1C` as the molecule, how does the Potency read?
A: inconclusive [inhibitor, partial curve]

Q: For `COCCOC(=O)C1=C(C)N=c2s/c(=C\c3cccs3)c(=O)n2C1c1cccs1` (stereo unspecified), which Potency is on record?
A: inconclusive [inhibitor, single point]

Q: How did the Potency turn out when `COC(=O)c1scc(C#N)c1N/N=C(\C#N)S(=O)(=O)c1ccc(Cl)cc1` was run?
A: active: 10 µM

Q: With `Cc1ccc(C)c2[nH]c(=O)c(CN(CCN3CCCC3)C(=O)Nc3cccc(Cl)c3)cc12` as the molecule, how does the Potency read?
A: inconclusive [inhibitor, single point]

Q: `CCN(C(=O)c1ccco1)c1nnc(-c2ccc(OC)cc2)s1` was tested. Which Potency did it give?
A: inconclusive [inhibitor, single point]

Q: `Cc1ccc(-c2c(C#N)c(N)nc3c2CCCCCC3)o1` was tested. Which Potency did it give?
A: inactive

Q: How did the Potency turn out when `S=c1[nH]c(-c2ccccc2)cn1/N=C/c1cccs1` was run?
A: inconclusive [activator, partial curve]

Q: `COc1ncnc2c1oc1nc(CC(C)C)c3c(c12)CC(C)(C)OC3` was tested. Which Potency did it give?
A: inactive

Q: Which Potency does the source give for `c1cncc(-c2nc(N3CCCCCC3)c3ccccc3n2)c1` here?
A: inconclusive [inhibitor, single point]

Q: With `COc1ccc(NCC(=O)N/N=C/c2cc([N+](=O)[O-])ccc2N2CCCC2)cc1` as the molecule, how does the Potency read?
A: inactive

Q: Which Potency does the source give for `C=CCNC(=O)c1onc(CSc2cccc3ccccc23)c1C(=O)O` here?
A: inconclusive [inhibitor, single point]

Q: `Cc1ccc(C2=NN(C(=O)CCl)C(c3cccs3)C2)o1` (stereo unspecified) was tested. Which Potency did it give?
A: inconclusive [inhibitor, single point]

Q: For `Cc1ccccc1-n1c(C)nnc1SCC(=O)N1CCc2ccccc2C1`, which Potency is on record?
A: inactive

Q: Which Potency does the source give for `O=[N+]([O-])c1ccccc1N/N=C/c1cc2ccccc2nc1Cl` here?
A: inconclusive [inhibitor, single point]

Q: `CC(C)N1C(=O)/C(=C/c2nc3ccccc3c(=O)n2-c2ccccc2)c2ccccc21` was tested. Which Potency did it give?
A: active: 10 µM

Q: How did the Potency turn out when `CCC(=O)c1ccc(OCC(O)CN2CCN(C(c3ccccc3)c3ccccc3)CC2)cc1` (stereo unspecified) was run?
A: inconclusive [inhibitor, partial curve]

Q: How did the Potency turn out when `COc1ccc(C(=O)NC2CCCCCC2)cc1S(=O)(=O)N1CCCc2ccccc21` was run?
A: inconclusive [inhibitor, single point]

Q: With `CCN(CC)c1ccc(/C=C(/C#N)c2nc3ccc(C)cc3[nH]2)c(OC(C)C)c1` as the molecule, how does the Potency read?
A: inconclusive [inhibitor, partial curve]

Q: With `O=C1C(Cl)=C(N2CCCCC2)C(=O)C(Cl)=C1c1cnc(N2CCCCC2)s1` as the molecule, how does the Potency read?
A: active: 6.31 µM

Q: Which Potency does the source give for `C/C(=N\NC(=O)COc1ccccc1-c1ccccc1)c1ccccn1` here?
A: active: 7.94 µM

Q: For `O=c1c2ccccc2c(-c2ccccc2)nn1-c1cc(Cl)ccc1[N+](=O)[O-]`, which Potency is on record?
A: inconclusive [inhibitor, single point]

Q: With `C=CCN1C(=O)/C(=C/C=C2/N(CC)c3ccc(S(=O)(=O)N(C)C)cc3N2CC)SC1=S` as the molecule, how does the Potency read?
A: inactive

Q: Which Potency does the source give for `CN1CCN(Cc2nc3ccccc3c(=O)n2Cc2nc(-c3ccc4ccccc4c3)cs2)CC1` here?
A: inconclusive [inhibitor, single point]

Q: How did the Potency turn out when `Cc1nc2cc(-c3cccs3)nn2c(NCC(C)(C)CN(C)C)c1C` was run?
A: inconclusive [activator, single point]

Q: How did the Potency turn out when `CCc1nnc(NC(=O)CSc2nc3cc4c(cc3cc2CC)OCCO4)s1` was run?
A: inconclusive [activator, single point]

Q: How did the Potency turn out when `Cn1c(Oc2ccc(Cl)cc2)c(C=O)c2ccccc21` was run?
A: inconclusive [inhibitor, partial curve]

Q: `Cc1cc(Nc2ccc(Cl)cc2)n(-c2cccc(Cl)c2)n1` was tested. Which Potency did it give?
A: inconclusive [inhibitor, single point]

Q: Which Potency does the source give for `O=C(Cn1cnc2c(nnn2Cc2ccc(Cl)cc2)c1=O)c1ccccc1` here?
A: inactive

Q: With `COc1ccc(C(=O)Oc2ccc(C(=S)N3CCOCC3)cc2)cc1` as the molecule, how does the Potency read?
A: inactive

Q: `COc1ccccc1-c1nnc(SCC(=O)Nc2nc(-c3ccccc3)cs2)n1C` was tested. Which Potency did it give?
A: inconclusive [inhibitor, single point]

Q: For `Cc1cc(C)c(S(=O)(=O)N(C2=NCCS2)S(=O)(=O)c2c(C)cc(C)cc2C)c(C)c1`, which Potency is on record?
A: inconclusive [inhibitor, single point]

Q: With `O=C(COC(=O)CC(c1ccccc1)c1ccccc1)Nc1ccc(F)c(F)c1` as the molecule, how does the Potency read?
A: inconclusive [inhibitor, single point]

Q: For `O=C(/C=C/c1cccc([N+](=O)[O-])c1)N1CC[C@@]2(O)CCCC[C@H]2C1`, which Potency is on record?
A: inactive

Q: `Cc1ccc(OCC(=O)N(Cc2ccc(N(C)C)cc2)C2CCS(=O)(=O)C2)cc1` (stereo unspecified) was tested. Which Potency did it give?
A: inactive

Q: With `COc1ccc(-c2cc(C(=O)N/N=C/c3sccc3C)c3ccccc3n2)c(OC)c1` as the molecule, how does the Potency read?
A: inconclusive [inhibitor, single point]

Q: How did the Potency turn out when `CC(C)C(=O)c1cc2c(cc1NC(=O)c1cccs1)OCCO2` was run?
A: inconclusive [inhibitor, partial curve]

Q: How did the Potency turn out when `N#CCCS(=O)(=O)c1nnnn1-c1ccccc1` was run?
A: inconclusive [inhibitor, single point]

Q: Which Potency does the source give for `COc1ccc(-c2ccc(N(C)C)cc2)cc1[C@H]1[C@@H]2C=CCC[C@@]2(C)C(=O)N1Cc1ccccc1` here?
A: inconclusive [inhibitor, single point]

Q: Which Potency does the source give for `Cc1ccc(NC(=O)c2sc3ccccc3c2Cl)nc1` here?
A: inconclusive [inhibitor, single point]

Q: Which Potency does the source give for `c1ccc(Cn2nnnc2C(c2ccccn2)N2CCN(c3ccccc3)CC2)cc1` (stereo unspecified) here?
A: inconclusive [inhibitor, partial curve]

Q: For `CCO/C=C1\SC(=S)N(c2ccc(Cl)cc2)C1=O`, which Potency is on record?
A: inactive

Q: For `COc1ccc(Nc2nc(-c3cccs3)nc3ccccc23)cc1`, which Potency is on record?
A: inactive

Q: `CCCOC(=O)c1ccc(NC(=O)c2ccccc2[N+](=O)[O-])cc1` was tested. Which Potency did it give?
A: inconclusive [activator, single point]

Q: For `CCCCOC(=O)C1=C(C)Nc2ncnn2C1c1cc(OC)c(OC)cc1OC` (stereo unspecified), which Potency is on record?
A: inconclusive [inhibitor, single point]

Q: For `O=[N+]([O-])c1ccccc1/C=C/C=N/n1c(-c2ccccc2)n[nH]c1=S`, which Potency is on record?
A: inactive

Q: For `COc1ccc(-c2noc(CN(C(=O)c3c(-c4ccccc4Cl)noc3C)C(C)C)n2)cc1`, which Potency is on record?
A: inconclusive [inhibitor, single point]

Q: How did the Potency turn out when `O=C(NC1CCCC1)c1nc2c(nnn2Cc2ccccc2Cl)c(=O)[nH]1` was run?
A: inactive

Q: `O=C(O)c1cccc(COc2ccc(CO)cc2Cl)c1` was tested. Which Potency did it give?
A: inactive

Q: Which Potency does the source give for `CC(C)=CC1C=C(C)C(C)C2C(=O)NNC(=O)C12` (stereo unspecified) here?
A: inconclusive [inhibitor, partial curve, poor fit]

Q: With `O=C(NCc1cccs1)c1ccncc1` as the molecule, how does the Potency read?
A: inactive

Q: With `Cc1cc(C)nc(S/C=C/C(=O)c2ccccc2)n1` as the molecule, how does the Potency read?
A: inconclusive [activator, full curve]

Q: Which Potency does the source give for `CCc1c(C#N)c(N)nc(SCC(=O)OCc2ccccc2)c1C#N` here?
A: inactive

Q: Which Potency does the source give for `COc1cc(CNC(=O)CCCCCCC(C)C)ccc1O` here?
A: inconclusive [inhibitor, single point]

Q: How did the Potency turn out when `CCOC(=O)c1c(CSC(=N)N)n(-c2ccc(C)cc2)c2cc(Br)c(OC(C)=O)cc12` was run?
A: active: 10 µM

Q: For `COc1ccc(OC)c(-c2cc(C3CCN(c4cc(Cl)nc(N)n4)CC3)[nH]n2)c1`, which Potency is on record?
A: inconclusive [inhibitor, partial curve]

Q: How did the Potency turn out when `Cc1cc(Nc2ccc([N+](=O)[O-])cc2)nc2ccccc12` was run?
A: inactive

Q: `COc1ccc(OC)c(CCNC(=O)Cn2sc3nc(C)cc(C)c3c2=O)c1` was tested. Which Potency did it give?
A: inconclusive [inhibitor, single point]

Q: How did the Potency turn out when `CCC(C)[C@@H](N)C(=O)N/N=C/c1ccc2ncccc2c1` (stereo partly specified) was run?
A: inactive

Q: `Cc1ccc(C(=O)/C=C/c2c(C)nn(-c3ccccc3)c2Cl)cc1` was tested. Which Potency did it give?
A: inconclusive [inhibitor, single point]

Q: With `O=C(Cn1cc2c(n1)CCCCC2)N1CCCCC1` as the molecule, how does the Potency read?
A: inactive

Q: `CCS(=O)(=O)c1ccc(-c2csc(-c3ccccc3)n2)c(Cl)c1Cl` was tested. Which Potency did it give?
A: inconclusive [inhibitor, full curve, poor fit]

Q: With `CCCCCOC(=O)CC(C(=O)OCCCCC)N1CCCCC1` (stereo unspecified) as the molecule, how does the Potency read?
A: inconclusive [inhibitor, single point]

Q: For `CCc1cccc(CC)c1-n1c(SCc2cc(=O)n3ccsc3n2)nnc1-c1cccnc1`, which Potency is on record?
A: inconclusive [inhibitor, single point]
